Test results from the antibiotic and cytotoxicity screens of Wong et al. (2023).
The other results are listed elsewhere or left out.

The molecules below were run on S. aureus RN4220 (assay: growth inhibition call (relative growth <= 0.2)). Conditions: 50 µM.

SMILES	growth inhibition call
CN1C(=O)c2cc(NC(=O)c3cccs3)ccc2OC[C@H]2O[C@@H](CC(=O)NCC(F)(F)F)CC[C@@H]21	inactive
O=C(N[C@H]1CCCCNC1=O)c1ccco1	inactive
CC(C)NCC(O)COc1cccc2ccccc12.Cl (centres undefined)	inactive
C[C@H]1CN([C@@H](C)CO)C(=O)c2cc(-c3ccncc3)cnc2O[C@@H]1CN(C)S(=O)(=O)c1ccc(F)cc1	inactive
COCCNC(=O)C[C@@H]1CC[C@H]2[C@@H](COc3ccc(NC(=O)Nc4cccc(F)c4)cc3C(=O)N2C)O1	inactive
CCC(=O)NCc1nc(C)cc(N(C)C)n1	inactive
CCc1cn([C@H]2C[C@H](O)[C@@H](CO)O2)c(=O)[nH]c1=O	inactive
C[C@H]1CN([C@@H](C)CO)C(=O)Cc2cc(NS(C)(=O)=O)ccc2O[C@@H]1CN(C)S(=O)(=O)c1cccs1	inactive
COc1ccc(S(=O)(=O)Nc2ccc3c(c2)C(=O)N([C@@H](C)CO)C[C@H](C)[C@@H](CN(C)Cc2ccc(Cl)c(Cl)c2)OCCCC[C@@H](C)O3)cc1	inactive
COc1ccc(NC(=O)N(C)C[C@@H]2OCCCC[C@@H](C)Oc3ccc(NC(=O)Cc4ccccc4)cc3C(=O)N([C@@H](C)CO)C[C@H]2C)cc1	inactive
C[C@@H]1CN([C@H](C)CO)C(=O)c2cc(-c3ccncc3)cnc2O[C@H]1CN(C)S(=O)(=O)c1ccccc1	inactive
C[C@@H]1CN([C@@H](C)CO)C(=O)Cc2cc(NC(=O)Cn3cnnn3)ccc2O[C@@H]1CN(C)Cc1ccncc1	inactive
CO[C@@H](CN(C)C(=O)c1ccc2c(c1)OCO2)[C@H](C)CN([C@@H](C)CO)S(=O)(=O)c1ccc(C)cc1	inactive
CCC1OC(=O)C(C)C(OC2CC(C)(OC)C(O)C(C)O2)C(C)C(OC2OC(C)CC(N(C)C)C2O)C(C)(OC)CC(C)C(=O)C(C)C(O)C1(C)O (centres undefined)	active
C[C@@H]1CN([C@@H](C)CO)C(=O)Cc2cc(NC(=O)CCCCCC(=O)Nc3ccccc3N)ccc2O[C@H]1CN(C)Cc1ccccc1	inactive
C[C@@H]1CN([C@@H](C)CO)C(=O)Cc2cc(NC(=O)CCN3CCOCC3)ccc2O[C@H]1CN(C)Cc1ccccc1	inactive
C[C@H](CO)N1C[C@H](C)[C@H](CN(C)S(=O)(=O)c2ccc(Cl)cc2)Oc2ccc(NC(=O)Nc3cccc4ccccc34)cc2CC1=O	inactive
C[C@@H]1CN([C@H](C)CO)C(=O)Cc2cc(NC(=O)Nc3cccc4ccccc34)ccc2O[C@H]1CN(C)C(=O)Nc1ccc(C(F)(F)F)cc1	inactive
C[C@H](CO)N1C[C@H](C)[C@@H](CN(C)C(=O)Nc2ccccc2)OCCCC[C@H](C)Oc2ccc(NS(=O)(=O)c3ccc(Cl)cc3)cc2C1=O	inactive
